Test results from the supplement of paper PMC3334620.
Over roughly 33,000 sequences, “E-score (-0.5 to 0.5)” has its median near -0.021; the highest 2% begin near 0.32. Some of the results follow.

Molecular target: T1, Zap1 (UniProt P47043)
T1 sequence: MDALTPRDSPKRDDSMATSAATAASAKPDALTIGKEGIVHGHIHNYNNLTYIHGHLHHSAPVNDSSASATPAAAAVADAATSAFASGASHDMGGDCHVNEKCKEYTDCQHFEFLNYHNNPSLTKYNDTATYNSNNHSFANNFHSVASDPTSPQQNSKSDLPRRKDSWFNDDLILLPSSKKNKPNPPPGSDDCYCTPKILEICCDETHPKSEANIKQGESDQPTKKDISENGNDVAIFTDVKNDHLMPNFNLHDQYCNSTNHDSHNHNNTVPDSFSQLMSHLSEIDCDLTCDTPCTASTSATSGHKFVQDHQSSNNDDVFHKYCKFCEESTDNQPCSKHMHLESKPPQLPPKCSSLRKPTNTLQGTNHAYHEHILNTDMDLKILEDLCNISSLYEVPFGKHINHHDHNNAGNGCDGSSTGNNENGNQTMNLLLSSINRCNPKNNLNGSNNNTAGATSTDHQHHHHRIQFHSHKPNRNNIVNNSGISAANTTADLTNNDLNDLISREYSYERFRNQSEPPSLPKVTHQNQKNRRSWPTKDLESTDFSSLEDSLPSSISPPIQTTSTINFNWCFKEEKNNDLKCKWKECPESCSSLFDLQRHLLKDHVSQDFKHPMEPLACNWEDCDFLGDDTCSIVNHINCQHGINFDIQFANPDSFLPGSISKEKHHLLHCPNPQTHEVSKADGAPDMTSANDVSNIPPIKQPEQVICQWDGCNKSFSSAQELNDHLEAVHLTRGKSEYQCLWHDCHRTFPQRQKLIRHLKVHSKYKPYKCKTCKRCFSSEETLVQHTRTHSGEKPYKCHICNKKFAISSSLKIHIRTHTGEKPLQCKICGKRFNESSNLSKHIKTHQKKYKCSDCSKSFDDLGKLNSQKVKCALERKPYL
Assay: PBM E-score (8-mer binding enrichment) (E-score (-0.5 to 0.5)); higher = stronger / more preferred TF binding; most listed sequences are background and not binding sites
Details: protein concentration: 200 nM; construct: GST-full length
Procedure: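 Universal 'all 10-mer' protein binding microarrays (Agilent AMADID 015681) probed with GST-tagged S. cerevisiae TFs (full-length or DBD) made by in vitro transcription/translation (PURExpress), about 100-200 nM. Bound TF was detected with fluorescent anti-GST. Each ungapped 8-mer (which stands for itself and its reverse complement) is scored by the PBM enrichment score (E-score), a modified Wilcoxon-Mann-Whitney statistic from -0.5 to +0.5, computed with the Universal PBM Analysis Suite. Scale: above 0.35 generally sequence-specific binding.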

Row | Sequence | PBM E-score
1 | GCCATCGA | -0.0273
2 | CACGAGGC | 0.144
3 | CGGCAAAA | -0.0785
4 | GCAAAAGC | -0.219
5 | CGGTCGTA | -0.262
6 | ACGAGGCA | 0.115
7 | CAAGGTAG | 0.303
8 | GGGGTCCA | 0.0229
9 | ACGGATAG | 0.0705
10 | GGAACTGA | 0.0127
11 | ACGGCCGA | -0.005
12 | CAGCGTCG | -0.209
13 | CCAGAGCC | -0.0556
14 | GACTAATA | 0.0413
15 | CGCTTCTC | -0.289
16 | ATGTAAGG | 0.153
17 | CTGGCCAC | 0.0644
18 | ACCTGTCC | -0.123
19 | GATCTATA | -0.026
20 | CAAACCCG | -0.043
21 | AGTTAGCC | -0.0837
22 | TAGAAATA | 0.253

Row | Sequence | PBM E-score
23 | TGGTCGAA | -0.229
24 | AGTGAACA | 0.0956
25 | GTTGTTGA | 0.16
26 | CGCTTTAG | -0.136
27 | GATTTGTA | 0.187
28 | AGAATGCC | -0.0954
29 | GAAATGAC | 0.103
30 | AATATGCG | -0.131
31 | AATTTTGC | -0.0522
32 | AAGCCCTG | -0.181
33 | GCAGGACC | -0.0212
34 | GCCGGAGC | -0.21
35 | CCCATTCG | 0.0172
36 | CCACTATA | 0.121
37 | GTTTCCGA | 0.0406
38 | CGCTGGCA | -0.0467
39 | CAGCATCG | -0.198
40 | AGGGATTC | -0.108
41 | CCATATGC | -0.0353
42 | CCTATTAG | 0.00905
43 | CCCCATAA | 0.197
44 | AGTTTGCA | -0.0409

Row | Sequence | PBM E-score
45 | GCGCCATA | 0.0673
46 | AAATGCAG | 0.0474
47 | TCAGGGAA | 0.0386
48 | TCTTGCCA | -0.149
49 | CGTCGTAA | -0.082
50 | AATGGGTC | 0.214
51 | CACAGATC | -0.0859
52 | CCGATCCC | -0.261
53 | GGCACGAC | -0.0477
54 | AAGATTGG | 0.00145
55 | AAATTCTG | 0.0992
56 | CAACTTCC | 0.0743
57 | ACCTAGTG | -0.0146
58 | CACAGCTC | -0.196
59 | AGAGACTA | -0.14
60 | CATGTGGG | 0.0729
61 | AACGGTTC | 0.107
62 | CACAGTGA | 0.0447
63 | ACCTGTTC | 0.0688
64 | AAAGACAA | 0.0575
65 | CCGGCAAA | -0.0539
66 | GTAATAAA | 0.216

Row | Sequence | PBM E-score
67 | ACACCATC | -0.13
68 | AGCACAAT | 0.0553
69 | GTCAGTTA | 0.0703
70 | ACCGACGT | -0.084
71 | GCACGTTA | -0.116
72 | ATCTACTG | 0.079
73 | CCCAGGCG | -0.0421
74 | CTCTTCTC | -0.237
75 | ACTTGCTC | -0.197
76 | CATTCACA | 0.0556
77 | ACCATAAT | 0.255
78 | CATGTTTA | 0.0879
79 | AAATGTTC | 0.0916
80 | AACCCATG | 0.262
81 | CTTTGAGA | 0.0827
82 | ATTCCGCA | -0.00942
83 | CCCCCTTC | -0.372
84 | CGTTACGC | -0.0139
85 | CAACATTC | -0.167
86 | TGCCACAA | 0.151
